According to the supplement of paper PMC12645437, “Orthogonal IMiD-Degron Pairs Induce Selective Protein Degradation in Cells” (ACS Chemical Biology, 2025):
Some of the results follow.

Target: no compound (DMSO)
Assay: log2 fold change of degron read counts, EGFP-low vs EGFP+ sorted cells; higher = lower degron-EGFP level without compound (poor expression or instability)
Details: compound: DMSO control; 18 h
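Also: jurkat cells carrying a lentiviral library of mutant zinc finger degrons fused to EGFP plus mCherry, mCherry+ cells FACS sorted, degron abundance counted by next-generation sequencing.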

| Sequence | log2 fold change of degron read counts |
| --- | --- |
| FQCPICGRNFTQKGNLLRHIKL | -0.162 |
| FECEICGALFTQKGNLLRHIKL | -0.957 |
| FSCPVCGAMFTQKGNLLRHIKL | 0.231 |
| FQCNQCGRGFTQKGNLLRHIKL | -0.558 |
| FVCNICGARFTQKGNLLRHIKL | 0.252 |
| FSCEVCGAVFTQKGNLLRHIKL | -2.34 |
| FLCNVCGAIFTQKGNLLRHIKL | 0.503 |
| FYCNQCGRRFTQKGNLLRHIKL | -0.273 |
| FGCDVCGACFTQKGNLLRHIKL | -0.789 |
| LLCPICGFYCTQKGNLLRHIKL | 2.09 |
| FLCNQCGAAFTQKGNLLRHIKL | -1.62 |
| LSCEICGFHCTQKGNLLRHIKL | -0.749 |
| FFCEICGHWFTQKGNLLRHIKL | 0.78 |
| FLCPICGHIFTQKGNLLRHIKL | 0.661 |
| FRCPVCGAQFTQKGNLLRHIKL | -0.701 |
| LTCEICGFPCTQKGNLLRHIKL | -0.246 |
| FECNQCGALFTQKGNLLRHIKL | -1.13 |
| FMCDQCGAAFTQKGNLLRHIKL | -3.1 |
| FTCNQCGHKFTQKGNLLRHIKL | -0.375 |
| FGCDQCGAAFTQKGNLLRHIKL | -1.8 |
| FICDVCGAWFTQKGNLLRHIKL | -0.51 |
| LTCEICGFTCTQKGNLLRHIKL | -0.864 |
| LMCNQCGFDCTQKGNLLRHIKL | -0.543 |
| LKCPICGFICTQKGNLLRHIKL | 0.0643 |
| FVCPICGHTFTQKGNLLRHIKL | 0.0796 |

| Sequence | log2 fold change of degron read counts |
| --- | --- |
| FNCEQCGAWFTQKGNLLRHIKL | -1.14 |
| FQCPICGHFFTQKGNLLRHIKL | 0.657 |
| FNCSVCGHFFTQKGNLLRHIKL | 0.897 |
| FQCEICGAWFTQKGNLLRHIKL | -1.17 |
| FICNICGACFTQKGNLLRHIKL | 0.418 |
| FLCEQCGALFTQKGNLLRHIKL | -1.21 |
| FVCDICGATFTQKGNLLRHIKL | -1.11 |
| FCCNVCGAFFTQKGNLLRHIKL | -0.0172 |
| FYCNQCGHCFTQKGNLLRHIKL | 0.174 |
| FTCEVCGAWFTQKGNLLRHIKL | -0.628 |
| FNCDICGAKFTQKGNLLRHIKL | -1.52 |
| FACNQCGRSFTQKGNLLRHIKL | -1.21 |
| FFCDVCGAEFTQKGNLLRHIKL | -1.94 |
| FQCEICGRVFTQKGNLLRHIKL | -0.67 |
| LACPICGFSCTQKGNLLRHIKL | 0.505 |
| FVCPVCGASFTQKGNLLRHIKL | -0.591 |
| FWCEICGHPFTQKGNLLRHIKL | 0.303 |
| FDCNQCGAYFTQKGNLLRHIKL | 1.13 |
| FACNVCGAVFTQKGNLLRHIKL | -0.739 |
| FMCSVCGHPFTQKGNLLRHIKL | -0.171 |
| FLCDQCGASFTQKGNLLRHIKL | -2.22 |
| LGCNQCGFTCTQKGNLLRHIKL | 0.876 |
| FECEICGHMFTQKGNLLRHIKL | -2.03 |
| FLCEVCGARFTQKGNLLRHIKL | -1.53 |
| LFCPICGFQCTQKGNLLRHIKL | 0.773 |
